Measured values as given in PubChem BioAssay AID485341 (National Center for Advancing Translational Sciences (NCATS), 2010).
In all, about 330,000 compounds went through this assay and about 1,700 (0.52%) were called active. The shares of active, inactive and inconclusive entries below differ from those in the screen. The call rests on the fitted dose curve; in most records, active means well fitted inhibition curve with a large enough effect; inconclusive means small, poorly fitted or top-dose-only effect; inactive means no such curve, though single readings can be large or run the other way. Where the call is inconclusive, the potency comes from a doubtful curve fit.

Molecular target: Beta-lactamase (Escherichia coli (strain K12)) (UniProt P00811)
Assay: qHTS Inhibitors of AmpC Beta-Lactamase (assay without detergent); further: nearly all actives have a fitted effect of over 20% in size;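 on activity change, negative = inhibition: plate controls were no compound for no effect and no enzyme for full effect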
Details: AmpC nitrocefin hydrolysis, absorbance 480 nm, 0.0001% Triton; activity change, negative = inhibition: at 57.1 µM (top of the series) unless noted
Outline: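 20 mM phosphate pH 7.0 + 0.01% (detergent screen) or 0.0001% Triton X-100; 5.3 nM AmpC reagent; cpd preinc 15 min RT; nitrocefin (800 uM stock) to start; A480 q20 s × 4 min; Activity was normalised to no-enzyme and no-compound control wells.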
Potency means the concentration at half of the fitted maximal effect; tags describe the fitted curve by direction and shape.

Chain of UniProt P00811 (P00811 whole entry, looked up): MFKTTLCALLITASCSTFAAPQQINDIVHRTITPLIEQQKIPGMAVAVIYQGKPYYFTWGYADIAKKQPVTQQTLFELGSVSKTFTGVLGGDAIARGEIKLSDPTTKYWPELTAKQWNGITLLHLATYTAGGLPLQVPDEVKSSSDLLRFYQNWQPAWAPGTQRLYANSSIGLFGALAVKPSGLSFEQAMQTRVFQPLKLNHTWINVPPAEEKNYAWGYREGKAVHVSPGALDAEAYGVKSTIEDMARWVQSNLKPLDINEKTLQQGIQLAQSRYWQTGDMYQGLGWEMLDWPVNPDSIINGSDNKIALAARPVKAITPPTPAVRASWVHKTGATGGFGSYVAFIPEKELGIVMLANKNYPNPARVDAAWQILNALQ

Row | Structure (SMILES) | Potency | activity change, negative = inhibition
1 | CCn1c(SCc2ccc(C(=O)Nc3cc(C)cc(C)c3)cc2)nnc1-c1ccncc1 | inconclusive: 6.31 µM [inhibitor, single point] | –
2 | Cc1ccc(N2C(=O)C3C4C=CC(CNC(=S)Nc5cccc(Cl)c5)(O4)C3C2=O)cc1 (centres undefined) | inconclusive: 20 µM [inhibitor, partial curve] | –
3 | O=S1(=O)N=C(N/N=C/c2cccs2)c2ccccc21 | inactive | –
4 | COC(=O)C(NC(=O)c1ccc(F)cc1)(Nc1ncc(S(=O)(=O)c2ccc([N+](=O)[O-])cc2)s1)C(F)(F)F (centres undefined) | active: 8.91 µM | –
5 | CCCCn1c(N)c(N(CCOC)C(=O)CSCc2ccc(C)cc2)c(=O)[nH]c1=O | inconclusive: 35.5 µM [inhibitor, single point] | –
6 | O=C(OCc1nnc(-c2ccccc2)o1)C1CC(=O)N(c2ccccc2)C1 (centres undefined) | inactive | –
7 | NC(=O)C1CCN(C(=O)CCSCc2ccccc2)CC1 | inactive | –
8 | Cc1ccc(NC(=O)Cn2c(CCC(=O)O)ccc2-c2cccs2)cc1 | inactive | –
9 | O=c1c(Cc2ccc(Cl)cc2Cl)c(O)ccn1Cc1ccncc1 | – | inactive: -3.68% [at 2.29 µM]
10 | Nc1nc(N2C(=O)C3CC=CCC3C2=O)nn1-c1ccccc1 (centres undefined) | inactive | –
11 | Cc1ccc(NS(=O)(=O)c2ccc(C(=O)N3CCCC(C(F)(F)F)C3)cc2)cc1 (centres undefined) | active: 35.5 µM | –
12 | Nc1ccc(-c2nnn(Cc3ccccc3F)n2)cc1 | inactive | –
13 | Cc1ccc(NC(=O)Cn2cc3c(n2)CCC(C)C3)cc1 (centres undefined) | inconclusive: 2.51 µM [inhibitor, full curve, poor fit] | –
14 | O=C(CSc1nnc(C2CC2)n1Cc1ccccc1)c1ccc(S(=O)(=O)N2CCOCC2)cc1 | inconclusive: 0.501 µM [inhibitor, full curve, poor fit] | –
15 | CC(=O)c1ccc(NC(=O)CN2C(=O)/C(=C/C=C/c3ccccc3)SC2=S)cc1 | inconclusive: 15.8 µM [inhibitor, partial curve] | –
16 | CCCCC(=O)NC(c1ccc([N+](=O)[O-])cc1)c1c(O)ccc2ccccc12 (centres undefined) | inconclusive: 1.78 µM [inhibitor, full curve, poor fit] | –
17 | COc1cc(N/C=C(\C(C)=O)c2ccccc2)cc(OC)c1 | inconclusive: 3.55 µM [inhibitor, single point] | –
18 | O=C(COC(=O)C1=Cc2ccccc2OC1)NC1CCCC1 | inconclusive: 7.08 µM [inhibitor, partial curve, poor fit] | –
19 | CCCC(C(=O)NC1CCCC1)N(C(=O)Cn1nnc(-c2ccc(C)o2)n1)C1CCCC1 (centres undefined) | inactive | –
20 | O=C(COC(=O)c1ccccn1)NCc1ccccc1 | inconclusive: 6.31 µM [inhibitor, single point] | –
21 | O=C(Cc1cccs1)Nc1nnc(Cc2ccccc2)s1 | inconclusive: 28.2 µM [inhibitor, partial curve] | –
22 | O=C(N/N=C/c1ccccn1)c1cc(-c2ccc(Cl)cc2)nc2ccccc12 | inconclusive: 25.1 µM [inhibitor, single point] | –

Row | Structure (SMILES) | Potency | activity change, negative = inhibition
23 | COc1ccc(-c2csc(NC(=S)NC(=O)c3ccc(S(=O)(=O)N(C)C)cc3)n2)cc1OC | inactive | –
24 | O=C(/C=C/c1ccc2c(c1)OCO2)Nc1nc(-c2ccc(F)cc2F)cs1 | inconclusive: 39.8 µM [inhibitor, single point] | –
25 | Cc1ccc(C)c(NC(=O)CSc2nc3nc(-c4cccs4)cc(C(F)(F)F)c3c(=O)[nH]2)c1 | active: 3.55 µM | –
26 | Cc1c(S(=O)(=O)N2CCOCC2)c(=O)n(C)c(=O)n1C | inconclusive: 3.16 µM [inhibitor, full curve, poor fit] | –
27 | Brc1ccc(-c2cnc3n2CCCC3)cc1 | inconclusive: 6.31 µM [inhibitor, single point] | –
28 | S=c1[nH]cc(-c2ccccc2)n1-c1ccccc1Cl | inconclusive: 22.4 µM [inhibitor, single point] | –
29 | CCCS(=O)(=O)c1c(S(=O)(=O)CCC)c2c(N)cccn2c1C(=O)c1ccc(Br)cc1 | inconclusive: 15.8 µM [inhibitor, partial curve] | –
30 | C/C=C/c1ccc(OCC(=O)Nc2cc(Cl)ccc2-n2cncn2)c(OC)c1 | inconclusive: 25.1 µM [inhibitor, single point] | –
31 | Cn1c(SCC(=O)NC2CC2)nnc1C(F)(F)F | inconclusive: 0.141 µM [inhibitor, full curve, poor fit] | –
32 | CCOC(=O)c1c(-c2ccc(C)cc2)csc1NC(=O)/C(C#N)=C/c1ccc(O)c(OC)c1 | active: 8.91 µM | –
33 | O=C(/C=C/c1ccco1)Nc1ccc(-c2nc3ccccc3[nH]2)cc1 | active: 35.5 µM | –
34 | CCc1c(C)nc(SCC(=O)Nc2nc(-c3ccc(OC)cc3)cs2)[nH]c1=O | active: 14.1 µM | –
35 | Cc1ccc(-c2nc3cnccn3c2Nc2ccc3c(c2)OCO3)o1 | active: 2.82 µM | –
36 | O=C1OC(C(=O)Nc2ccccc2)Cc2ccccc21 (centres undefined) | inactive | –
37 | O=c1[nH]c(NNC(=S)NC2CCCCC2)nc2c1C1(CCCC1)Cc1ccccc1-2 | inconclusive: 3.55 µM [inhibitor, full curve, poor fit] | –
38 | CN(CC(=O)Nc1ccccc1Cl)C(=O)Cn1nnc(-c2ccc(F)cc2)n1 | inconclusive: 35.5 µM [inhibitor, single point] | –
39 | Cc1ccc(S(=O)(=O)CC2CSc3nnc(C)c(=O)n32)cc1 (centres undefined) | inconclusive: 5.01 µM [inhibitor, single point] | –
40 | CNc1oc(-c2ccccc2Cl)nc1C#N | inactive | –
41 | CCN(CCNC(=O)C1CCN(c2nnc(-n3cccc3)s2)CC1)c1ccccc1 | inconclusive: 2 µM [inhibitor, full curve, poor fit] | –
42 | Oc1ccc(/C=N/Nc2ccnc3cc(Cl)ccc23)cc1O | active: 11.2 µM | –
43 | COc1ccc(NC(=O)CN(C)C(=O)c2cc(CN3C(=O)c4ccccc4C3=O)ccc2OC)cc1 | inconclusive: 39.8 µM [inhibitor, single point] | –
44 | COc1ccc2c(c1)N(C)/C(=C1/SC(=NCc3ccccc3)N(c3ccccc3)C1=O)S2 | inconclusive: 0.794 µM [inhibitor, partial curve, poor fit] | –
